# Test results: publication PMC4336329 (PLoS ONE, 2015)
# About 14,000 (4.5%) of roughly 310,000 compounds showed an effect of 50% or more. Effects have a minus sign here. The list shows a part of the results.
# Target: human ether-à-go-go-related gene (hERG) potassium channel (human, UniProt Q12809)
# Assay: primary screen, population patch clamp on CHO cells stably expressing hERG
# 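Further: peak tail current of the secondary pulse compared with the same well before compound.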
# Chain of human ether-à-go-go-related gene (hERG) potassium channel (Q12809 whole entry, looked up): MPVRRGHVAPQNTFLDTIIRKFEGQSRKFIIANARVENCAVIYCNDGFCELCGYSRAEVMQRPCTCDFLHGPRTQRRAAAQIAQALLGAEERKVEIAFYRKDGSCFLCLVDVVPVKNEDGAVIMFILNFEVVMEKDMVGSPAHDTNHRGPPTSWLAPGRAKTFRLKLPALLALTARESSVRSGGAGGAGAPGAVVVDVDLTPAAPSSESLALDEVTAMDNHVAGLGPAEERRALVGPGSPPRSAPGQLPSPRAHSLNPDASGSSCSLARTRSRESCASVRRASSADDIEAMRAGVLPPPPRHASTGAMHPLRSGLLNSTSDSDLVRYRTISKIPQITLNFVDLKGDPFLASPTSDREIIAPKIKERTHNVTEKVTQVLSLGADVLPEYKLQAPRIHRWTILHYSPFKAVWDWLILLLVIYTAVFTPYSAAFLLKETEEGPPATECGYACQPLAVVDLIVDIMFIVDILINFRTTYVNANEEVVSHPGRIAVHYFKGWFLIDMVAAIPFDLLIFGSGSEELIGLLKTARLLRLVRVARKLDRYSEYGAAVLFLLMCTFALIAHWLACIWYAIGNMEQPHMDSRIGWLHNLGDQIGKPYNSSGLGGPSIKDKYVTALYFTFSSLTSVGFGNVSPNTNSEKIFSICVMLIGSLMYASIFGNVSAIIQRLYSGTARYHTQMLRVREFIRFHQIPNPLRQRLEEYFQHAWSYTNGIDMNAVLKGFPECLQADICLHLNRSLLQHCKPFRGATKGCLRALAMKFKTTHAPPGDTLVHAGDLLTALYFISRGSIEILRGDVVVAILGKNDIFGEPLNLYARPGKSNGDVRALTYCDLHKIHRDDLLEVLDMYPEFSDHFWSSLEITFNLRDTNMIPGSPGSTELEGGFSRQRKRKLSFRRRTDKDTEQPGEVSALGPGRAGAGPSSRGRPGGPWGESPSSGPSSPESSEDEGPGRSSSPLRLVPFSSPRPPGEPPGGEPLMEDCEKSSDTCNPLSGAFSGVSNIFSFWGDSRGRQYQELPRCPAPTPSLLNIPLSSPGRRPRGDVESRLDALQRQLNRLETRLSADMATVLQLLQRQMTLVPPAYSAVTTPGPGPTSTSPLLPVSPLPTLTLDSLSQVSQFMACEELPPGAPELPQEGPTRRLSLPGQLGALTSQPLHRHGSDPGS
row,Structure (SMILES),"hERG current change (%, negative = inhibition) at 10uM"
1,CC(C)c1cccc(OCCCCN(C)C)c1.O=C(O)C(=O)O,-14.1%
2,CCOC(=O)N1CCN(C(=O)c2ccc(Cn3c(=S)[nH]c4cc(OCC)c(OCC)cc4c3=O)cc2)CC1,9.78%
3,CCCCn1c(N)c(N(CCOC)C(=O)c2ccc(COc3ccccc3)o2)c(=O)[nH]c1=O,6.15%
4,Cc1cc(NC(=O)CSc2cn(CCNC(=O)c3ccccc3)c3ccccc23)no1,-28.3%
5,COc1ccc(CCNC(=O)C2CCN(S(=O)(=O)c3cccc4nsnc34)CC2)cc1OC,-16.3%
6,COc1cc(OC)cc(-c2nc(-c3cccs3)no2)c1,16.4%
7,CCn1c(CCC(=O)Nc2cc(F)ccc2C)nc2cc(S(=O)(=O)N(C)C)ccc21,-10.9%
8,Cc1ccc(CC(=O)N2CCOCC2)cc1,5.01%
9,O=C1/C(=C\c2ccco2)NC(=S)N1c1ccccc1,19.2%
10,O=S(=O)(NCC(c1ccco1)N1CCc2ccccc2C1)c1ccc(F)cc1 (stereo not drawn),0.0316%
11,Cl.N=c1sccn1CC(=O)Nc1cccc(S(=O)(=O)N2CCCCCC2)c1,-49.8%
12,COc1ccc(C2CC(=O)C3=C(C2)Nc2ccccc2N(C(=O)CCC(=O)O)C3c2ccc(F)cc2)cc1OC (stereo not drawn),11.1%
13,O=S(=O)(NC1CCCCC1N1CCOCC1)c1ccc(Cl)cc1 (stereo not drawn),2.16%
14,Cc1cccc(NC(=O)c2ccco2)c1C,22.4%
15,CCOC(=O)C1(CC2CCCCO2)CCN(C(=O)Nc2ccc(C)c(C)c2)CC1 (stereo not drawn),8.58%
16,CCOC(=O)Nc1sc(C(=O)N(CC)CC)c(C)c1C(=O)OCC,-11.5%
17,O=C(On1c(-c2ccccc2)nc2ccccc2c1=O)c1ccco1,17.5%
18,CC(C)C(=O)Nc1ccc(Nc2ccccc2)cc1,-12%
19,O=S(=O)(NCc1ccccc1)c1ccc(-c2cnc(C3CC3)o2)cc1,16.5%
20,CCOC(=O)C1CCCN(C2=NC(=O)/C(=C/c3ccc(OC)cc3OC)S2)C1 (stereo not drawn),-52.6%
21,CCc1ccccc1NC(=O)c1cc(S(=O)(=O)N2CCCC2)c[nH]1,9.5%
22,CCOc1ccc(/C(O)=C2/C(=O)C(=O)N(CCN(CC)CC)C2c2cccs2)cc1 (stereo not drawn),8.37%
23,COc1cccc(NC(=O)C(C)OC(=O)CCCNC(=O)c2ccc(Cl)cc2)c1 (stereo not drawn),-14.6%
24,CCc1cc(C(=O)c2ccc(OC)cc2)c(NC(=O)CN2CCN(C)CC2)s1,-71.3%
25,O=C(Nc1ccccc1N1CCN(c2ccc(F)cc2)CC1)C12CC3CC(CC(C3)C1)C2,-1.22%
26,O=C(CSc1nnc(COc2ccccc2)n1Cc1ccco1)NCc1ccco1,0.149%
27,CCN(CC)C(=O)CSc1ncnc2c1cnn2-c1ccccc1,-14.2%

row,Structure (SMILES),"hERG current change (%, negative = inhibition) at 10uM"
1,CC(C)(C)n1ncc2c(=O)n(CC(=O)OCc3ccccc3)cnc21,0.341%
2,CCCCC(=O)Nc1ccc(C(=O)Nc2ccc(OC)cc2[N+](=O)[O-])cc1,-8.04%
3,C/C(=N\NC(=O)c1c(-c2ccccc2Cl)noc1C)c1cccc(NC(=O)C(C)C)c1,-29.3%
4,O=C(c1ccco1)N1CCn2cccc2C1c1ccccc1 (stereo not drawn),-16.4%
5,O=C(Nc1ccccc1Cl)C1CC(=O)N(c2ccccc2)C1 (stereo not drawn),-0.459%
6,CCOc1c(Br)cc(C(=O)OCC(=O)N2CCc3ccccc3C2)cc1OC,-0.0262%
7,O=C(NC1(C(F)(F)F)C(=O)Nc2c1c(=O)[nH]c(=O)n2-c1ccccc1)c1cccnc1 (stereo not drawn),22.2%
8,O=C(CSc1nnc(-c2cccs2)o1)OC1CCCCC1,-21.1%
9,O=C(CSc1nnc(-c2ccco2)n1Cc1ccccc1)c1ccccc1,-18.4%
10,Cc1nc(NC(=S)NC(=O)c2cccs2)sc1C(=O)N(C)C,4.43%
11,CCOC(=O)C1CCCN(S(=O)(=O)c2ccc(-n3cnnn3)c(C)c2)C1 (stereo not drawn),-11.3%
12,COCc1[nH][nH]c(=O)c1/C=N/N1CCOCC1,15.1%
13,Nc1cc2sc(-c3ccc(C(=O)O)cc3)nc2cc1Cl,7.11%
14,O=C1CN(S(=O)(=O)c2cccc(C(=O)O)c2)c2ccccc2N1,17.5%
15,O=C(CN1CCCCCC1)Nc1ccc([N+](=O)[O-])cc1Cl,-5.5%
16,COC(=O)Cn1c(=NC(=O)c2ccc([N+](=O)[O-])s2)sc2cc(Br)ccc21,13.1%
17,C=CCOc1ccc(C2NC(=S)NC(c3ccccc3)=C2C(C)=O)cc1OC (stereo not drawn),-1.7%
18,COc1ccccc1C(=O)OCC(=O)NC(=O)NC1CCCC1,7.52%
19,CN(CC(=O)Nc1ccc(F)c(F)c1F)C(=O)/C=C/c1ccc(Cl)cc1,-5.54%
20,C/C(CC(O)(/C=N/O)c1ccccc1)=N\O (stereo not drawn),17.8%
21,O=C(c1ccccc1S(=O)(=O)NCc1ccccc1)N1CCCC1,-4.43%
22,CCN(CC)S(=O)(=O)c1ccc(C(=O)OCC(=O)NC2CCCC2)cc1,21.1%
23,O=C(c1ccccc1)N1N=C(c2ccccc2)CC1c1ccccc1[N+](=O)[O-] (stereo not drawn),13.4%
24,COc1cc(C=C(c2nc3ccccc3s2)c2nc3ccccc3s2)cc(OC)c1O,5.65%
25,COc1cccc(CNS(=O)(=O)c2c(C(=O)N3CCCC3)c(C)n(C)c2C)c1,13.7%
26,CCOC(=O)CSC1=Nc2ccccc2C2=NC(CC(=O)NCc3ccc4c(c3)OCO4)C(=O)N12 (stereo not drawn),-26.9%
27,C/C=C/C(=O)Nc1cccc(C2=NOC3(C2)C[C@H](C(N)=O)N(C(=O)/C=C/C)C3)c1 (stereo partly drawn),1.04%
